# Experimental data reported in the supplement of paper PMC4604168 (melanoma cell lines).
# This is one part of the list. Most values come without repeats; read them as rough.
# Test system: IPC-298
# Assay: cell count relative to DMSO control; melanoma cells; higher = more viable cells
# Conditions: library dose: low library concentration; 72 h
# 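Also: cell number obtained by counting DAPI-stained nuclei in high-throughput microscope images with image analysis software, screen run in 1,536-well plates.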
row,SMILES,cell count [%]
1,"Cc1cn(-c2cc(NC(=O)c3ccc(C)c(Nc4nccc(-c5cccnc5)n4)c3)cc(C(F)(F)F)c2)cn1 [nilotinib] + C[C@]1(O)C[C@@H](c2nc(-c3ccc4ccc(-c5ccccc5)nc4c3)c3c(N)nccn32)C1 [OSI906] (first compound 0.2 µM, partner dose 0.4 µM)",85.9
2,"CC(C)C[C@H](NC(=O)[C@H](Cc1ccccc1)NC(=O)c1cnccn1)B(O)O [Bortezomib] + Nc1nc(F)nc2c1ncn2[C@@H]1O[C@H](CO)[C@@H](O)[C@@H]1O [fludarabine] (first compound 0.001 µM, partner dose 0.2 µM)",81.4
3,"COc1ccc(C2=N[C@@H](c3ccc(Cl)cc3)[C@@H](c3ccc(Cl)cc3)N2C(=O)N2CCNC(=O)C2)c(OC(C)C)c1 [Nutlin-3] + CNC(=O)c1cc(Oc2ccc(NC(=O)Nc3ccc(Cl)c(C(F)(F)F)c3)cc2)ccn1 [sorafenib] (first compound 0.1 µM, partner dose 0.4 µM)",88.7
4,"COc1ccc(C2=N[C@@H](c3ccc(Cl)cc3)[C@@H](c3ccc(Cl)cc3)N2C(=O)N2CCNC(=O)C2)c(OC(C)C)c1 [Nutlin-3] + COCC[n+]1c2c(n(Cc3cnccn3)c1C)C(=O)c1ccccc1C2=O [YM155] (first compound 0.1 µM, partner dose 0.0004 µM)",102
5,"COc1ccc(C2=N[C@@H](c3ccc(Cl)cc3)[C@@H](c3ccc(Cl)cc3)N2C(=O)N2CCNC(=O)C2)c(OC(C)C)c1 [Nutlin-3] + Nc1nc(F)nc2c1ncn2[C@@H]1O[C@H](CO)[C@@H](O)[C@@H]1O [fludarabine] (first compound 0.1 µM, partner dose 0.2 µM)",92.2
